Measured values from PubChem BioAssay AID1347073 (National Center for Advancing Translational Sciences (NCATS), 2019).
About 200 (0.44%) of roughly 45,000 compounds were called active. About 7% were inconclusive and are not listed. The call rests on the fitted dose curve; in most records, active means well fitted activation curve with a large enough effect; inconclusive means small, poorly fitted or top-dose-only effect; inactive means no such curve, though single readings can be large or run the other way. This is one part of the list.

test: qHTS of TDP-43 Inhibitors: NCGC Sytravon Library Screen; settings: yeast TDP-43 toxicity rescue, BacTiter-Glo growth, 24 h; series mostly up to 46.1 µM; growth rescue (activation): at the top concentration; further: nearly all actives have a fitted effect of over 55% in size; on growth rescue (activation): 0% is about no effect
Method in brief: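 TDP-43-expressing yeast, pregrown in raffinose, seeded at OD600 0.02 in galactose medium with compound for 24 hr at 30 deg C. Growth read by BacTiter-Glo luminescence, so rescue of toxicity appears as activation.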
Potency means the concentration at half of the fitted maximal effect.

SMILES	growth rescue (activation)	Potency
Cc1cc(C)c(CSc2nnnn2-c2ccc(C(=O)O)cc2)c(C)c1	inactive: 5.69%	–
O=C(Cn1cnc2cc([N+](=O)[O-])ccc2c1=O)NC(=O)NCc1ccccc1	inactive: -3.71%	–
CC1CCN(Cc2c(C(=O)N/N=C/c3ccccc3O)nnn2-c2nonc2N)CC1	inactive: 13.3%	–
O=C(COC(=O)c1ccc(NS(=O)(=O)c2cccs2)cc1O)NC1CCCCC1	inactive: 20.5%	–
COCCNc1nc(NCCN2CCNC2=O)c2sccc2n1	inactive: -14.8%	–
CCCCOC(=O)C1=C(C)NC(=O)NC1c1ccc2c(c1)OCO2 (centres undefined)	inactive: 4.11%	–
O=C(COc1ccccc1[N+](=O)[O-])Nc1cc(C(=O)O)cc(C(=O)O)c1	inactive: 6.12%	–
O=C(NNC(=O)c1cc2ccccc2oc1=O)c1ccccc1	inactive: -4.21%	–
COc1ccc2c(/C=N/NS(=O)(=O)c3ccc(C)cc3)c[nH]c2c1	inactive: 24.5%	–
CC(=O)c1ccc(N(C(=O)Cn2nnc3ccccc32)C(C(=O)NCc2ccccc2)c2ccccn2)cc1 (centres undefined)	inactive: 3.3%	–
CCCN(CCC)C(=O)c1ccc2c(=O)n(Cc3ccco3)c(=S)[nH]c2c1	inactive: 18%	–
Cc1ccc(S(=O)(=O)N(C)C)cc1-n1c(SCC(=O)Nc2ccccc2)nc2ccccc2c1=O	inactive: 12.7%	–
CCc1ccccc1NC(=O)CSc1nnc(CCNC(=O)OC(C)(C)C)o1	inactive: 8.52%	–
CC(C)(C)c1ccc(S(=O)(=O)/N=C2\C=C(NS(=O)(=O)c3ccccc3)C(=O)c3ccccc32)cc1	inactive: 22.7%	–
O=C(NNS(=O)(=O)c1ccccc1[N+](=O)[O-])c1cc2ccccc2cc1O	inactive: -5.59%	–
COc1ccc(S(=O)(=O)c2c[nH]c(=S)[nH]c2=O)cc1Cl	inactive: -2.27%	–
O=C(CSc1n[nH]c(-c2ccccc2Cl)n1)NCc1cccc(C(=O)O)c1	inactive: 3.42%	–
Cc1ccc(C)c(NC(=S)N(C2CCCCC2)C(C)c2cccnc2)c1 (centres undefined)	inactive: 11.3%	–
COc1ccc(O)c(C(=O)c2cc(SCC(=O)O)c3nc4sc5c(c4c(=O)n3c2)CCCC5)c1	inactive: 26.5%	–
CCc1nc2c(OCc3ccccc3)cccn2c1N(C)C(=O)C(C)C	inactive: -0.88%	–
CC(C(=O)Nc1cccc([N+](=O)[O-])c1)N(c1ccccc1)S(C)(=O)=O (centres undefined)	inactive: 9.68%	–
CCOC(=O)c1nc2ccccc2c(C)c1C	inactive: -3.4%	–
COCCNc1nnc(SC(C)C(=O)Nc2ccc(-c3nc4ccc(C)cc4s3)cc2)s1 (centres undefined)	inactive: 9.88%	–
O=C(c1csc2ccccc12)N1CCN(c2ccccn2)CC1	inactive: -2.44%	–
COC(=O)c1ccc2nc(NC(=O)COC(=O)CSc3nc(C)cc(C)n3)sc2c1	inactive: -14.8%	–
COc1ccc(-n2c(=S)[nH]c3cc(C(=O)N4CCN(c5ccccc5)CC4)ccc3c2=O)cc1	inactive: -2.41%	–

SMILES	growth rescue (activation)	Potency
COc1cc(NC(=O)C2(C)CCCN(C(C)C)C2)cc(OC)c1OC (centres undefined)	inactive: 8.09%	–
O=C(NCC1CCN(C(=O)c2c(F)c(F)c(F)c(F)c2F)CC1)c1c(F)c(F)c(F)c(F)c1F	–	active: 17.8 µM
CC(Sc1nc(-c2ccccc2)cc(C(F)(F)F)n1)C(=O)Nc1sc2c(c1C(N)=O)CCC2 (centres undefined)	inactive: 16.4%	–
O=[N+]([O-])c1ccccc1-c1ccc(C(=S)N2CCCC2)o1	inactive: 3.05%	–
O=C(COC(=O)CCOc1ccccc1)Nc1ncc(Cl)cc1Cl	inactive: 26.4%	–
COc1ccc(CCNC(=O)c2cc(=O)[nH]c3ccc(Br)cc23)cc1OC	inactive: 14.3%	–
O=C(COC(=O)Cn1cnc2ccccc21)Nc1cccc([N+](=O)[O-])c1	inactive: -3.83%	–
Cc1cc(C)n2nc(C(=O)N/N=C/c3cccs3)nc2n1	inactive: -2.76%	–
N#C/C(=C\c1ccc(/C=C(/C#N)c2nn(CCO)c(N)c2C#N)cc1)c1nn(CCO)c(N)c1C#N	inactive: 0.27%	–
CCOC(=O)c1[nH]ncc1CN1CCCC(C(=O)c2ccc(OC)c(OC)c2)C1 (centres undefined)	inactive: 16.5%	–
CCN(NC(=O)C(O)(c1ccccc1)c1ccccc1)C(=O)c1ccccc1	inactive: 21%	–
O=C(CSc1nnc(CNc2ccc(F)cc2)n1CC1CCCO1)N1CCOCC1 (centres undefined)	inactive: -1.72%	–
CCN1C(=C(C#N)C#N)C=Cc2cc(C)ccc21	inactive: 7.43%	–
CN(CC(=O)Nc1ccccc1Cl)CC(=O)N(C)c1c(N)n(Cc2ccccc2)c(=O)[nH]c1=O	inactive: -8.1%	–
CC(C)n1cc(/C=C2/NC(=O)NC2=O)c2ccccc21	inactive: -11.5%	–
CCCS(=O)(=O)NC(=O)C1(C)CCN(C(=O)c2cc(OC)c(OC)c(OC)c2)C1 (centres undefined)	inactive: 4.59%	–
COc1ccc(C(=O)OCC(=O)N2CCC(C)CC2)cc1S(=O)(=O)N1CCOCC1	inactive: 24.1%	–
COc1ccc(NS(=O)(=O)c2ccc(Cl)c(N)c2)cc1Br	inactive: -16.5%	–
O=C(Cc1ccc(-n2cccc2)cc1)NCc1ccccc1Cl	inactive: 24.3%	–
CCn1cnc2c1c(=O)n(Cc1ccc(C(=O)OC)cc1)c(=O)n2Cc1ccccc1	inactive: 16%	–
CC(C)(C)c1ccc(C(=O)NCC(=O)N/N=C/c2ccccc2OCC(=O)O)cc1	inactive: 3.8%	–
CCOc1ccccc1NC(=O)CN1CCC(NC(=O)c2ccccc2C)CC1	inactive: 2.91%	–
CCOc1ccc(Oc2c(C)oc3cc(O)ccc3c2=O)cc1	inactive: 10.3%	–
CCc1n[nH]c(=O)c2cc3cc(OC)ccc3n12	inactive: 21.5%	–
COc1ccc(S(=O)(=O)N2CCN(c3ccccc3OC)CC2)cc1C(=O)N1CCCCC1	inactive: 11.7%	–
Fc1ccccc1OCC1CCCN(Cc2nc(CC3CC3)no2)C1 (centres undefined)	inactive: -6.87%	–

SMILES	growth rescue (activation)	Potency
COc1cccc(NC(=O)c2nc(SC)ncc2Cl)c1	inactive: 19.7%	–
COC(=O)c1cc(-c2cc(OC)ccc2OC)nc2c1c(=O)n(C)c(=O)n2Cc1ccccc1	inactive: -0.811%	–
Cc1ccc(NC(=O)COC(=O)c2nn(-c3ccc(Cl)cc3)cc2O)cc1	inactive: -1.77%	–
CC(C)CN1C2CCCC1CC(NC(=S)NCc1ccco1)C2 (centres undefined)	inactive: 10.6%	–
COc1ccccc1CCC(=O)N1CCN(C(=O)c2ccccc2)CC1	inactive: -1.86%	–
O=C(Nc1ccc(C(=O)O)cc1)/C(=C\c1ccc([N+](=O)[O-])cc1)NC(=O)c1ccc(Br)cc1	inactive: 2.78%	–
Cc1nccn1CC(O)COc1ccc(Cl)cc1Cl (centres undefined)	inactive: -5.56%	–
COc1cccc(C(=O)CC(=O)C(=O)Nc2cccc([N+](=O)[O-])c2C)c1	inactive: 18.8%	–
CC(=O)c1ccc(NC(=O)c2cc(C)nn2-c2ccccc2)cc1	inactive: 21.7%	–
Cc1ccc(C(=O)Nc2nnn(C)n2)cc1	inactive: -3.31%	–
COc1ccc(C(C)=O)cc1CC1(C)C(=O)Nc2ccc(OC(F)(F)F)cc21 (centres undefined)	inactive: -13.9%	–
CC1CC(C)CN(C(=O)COC(=O)CCC(=O)c2cccs2)C1 (centres undefined)	inactive: -12.3%	–
O=C(NCCCO)c1ccc(CSc2nc3ccccc3[nH]2)cc1	inactive: 9.06%	–
CCCc1nc(SCC(=O)c2ccc3c(c2)NC(=O)CO3)[nH]c(=O)c1CC	inactive: -0.345%	–
O=C(CSc1nc(O)cc(=O)[nH]1)N1CCCc2ccccc21	inactive: -11.3%	–
O=S(=O)(Nc1nc(-c2ccccc2)cs1)c1cccc(C(F)(F)F)c1	inactive: -1.32%	–
COCCCNC(=O)c1ccc([N+](=O)[O-])c(Cl)c1	inactive: -14.5%	–
CCOc1ccc(NCc2cccn2-c2nnc(N3CCC(C(=O)NCc4ccccc4Cl)CC3)s2)cc1	inactive: 8.42%	–
O=C(Nc1ccccc1Cl)c1ccc(S(=O)(=O)NCC2CCCO2)cc1 (centres undefined)	inactive: 7.89%	–
CCCCOc1ccc(C(=O)Nn2c(-c3cccs3)nc3ccccc3c2=O)cc1	inactive: 13.9%	–
O=C(NC(=S)Nc1ccc(NC(=O)c2cccs2)cc1)c1cc2ccccc2o1	inactive: -24.5%	–
O=C(NC1CCSc2ccccc21)c1ccc(C(F)(F)F)cc1 (centres undefined)	inactive: -7.86%	–
Cc1cc(C)nc(N/N=C/c2cc3c(cc2[N+](=O)[O-])OCO3)n1	inactive: 8.34%	–
Cn1c(N)c(C(=O)c2ccc(F)cc2F)c(=O)n(C)c1=O	inactive: 4.17%	–
Cc1ccc(SCCC(=O)NNC(=O)c2ccccc2F)cc1	inactive: 28.4%	–
Cc1cc(NS(=O)(=O)c2ccc(NC(=O)c3ccc(Cl)cc3[N+](=O)[O-])cc2)no1	inactive: 8.21%	–

SMILES	growth rescue (activation)	Potency
COc1cccc(NC(=O)COC(=O)C2CCN(S(=O)(=O)c3cccs3)CC2)c1	inactive: 1.95%	–
CCCc1nnc(NC(=O)CCC(=O)N2CCN(c3nc(C)cc(C)n3)CC2)s1	inactive: -3.3%	–
Cn1c(SCC(=O)NNC(=O)c2ccc(Br)cc2)nnc1-c1cccnc1	inactive: -0.903%	–
O=C(NNC1CC(=O)N(c2ccccc2)C1=O)c1ccccc1Cl (centres undefined)	inactive: -1.73%	–
COc1ccccc1N=C1SCC(=O)N1c1ccccc1OC	inactive: 7.52%	–
C/C(=N\O)c1oc2ccc3c(C)cc(=O)oc3c2c1C	inactive: 5.12%	–
Cc1cccc(-n2c(Cn3nc(C)c([N+](=O)[O-])c3C)n[nH]c2=S)c1	inactive: 21.2%	–
NC(=O)c1ccc(NC(=O)COC(=O)c2cc3ccccc3cc2O)cc1	inactive: -1.32%	–
Cc1ccc(S(=O)(=O)N2CCCCC2)cc1NC(=O)CSc1ncn[nH]1	inactive: 5.22%	–
CC(=O)Nc1ccc(S(=O)(=O)NC2CCCCCC2)cc1	inactive: -0.738%	–
O=C(COC(=O)COc1cccc(Br)c1)Nc1c(Cl)cccc1Cl	inactive: -18.1%	–
CCN(C(=O)CSc1nnc(COc2cccc(C)c2)o1)c1nc(C)cs1	inactive: 0.167%	–
O=C(NCCCn1ccnc1)c1cc(S(=O)(=O)N2CCOCC2)ccc1F	inactive: 7.39%	–
CCn1ncc(CN2CCN(Cc3cccc(OC)c3)C(CCO)C2)c1C (centres undefined)	inactive: -13.5%	–
O=C(CSc1nnc(-c2ccncc2)o1)NCc1ccccc1	inactive: 3.57%	–
O=[n+]1cc(-c2ccccc2)n([O-])c2c1CCCCC2	inactive: 13.5%	–
O=C(/C=C/c1cc([N+](=O)[O-])ccc1OC(F)F)Nc1cccc2ccccc12	inactive: 23%	–
O=C(Nc1nc(-c2ccccn2)cs1)c1ccco1	inactive: -20%	–
Cn1c(SCC(=O)NNC(=O)c2ccccc2)nnc1C1CC1	inactive: 2.14%	–
COc1ccc(/C=N/NC(=O)Cn2c(Cc3ccc(OC)c(OC)c3)nc3ccccc32)cc1	inactive: 10.6%	–
Cn1c(N)c(C(=O)COC(=O)C2CC(=O)N(Cc3ccccc3)C2)c(=O)n(C)c1=O (centres undefined)	inactive: 0.577%	–
COc1ccccc1NC(=O)COC(=O)CCC1CCCC1	inactive: 15%	–
O=C1Nc2ccccc2O/C1=C\c1ccccc1	inactive: 11.9%	–
Cc1cccc(C)c1NC(=O)CN1CCCC1	inactive: 4.11%	–
CC1Sc2ccccc2N(Cc2ccc(OC(F)(F)F)cc2)C1=O (centres undefined)	inactive: 14.4%	–
CCCc1nc2c(c(=O)c3ccccc3n2C)c(=O)n1C1CCCCCC1	inactive: 19.2%	–
